# PubChem BioAssay AID485294 (National Center for Advancing Translational Sciences (NCATS), 2010)
# Out of some 370,000 compounds screened, about 150 (0.041%) were called active. Inconclusive means that the source gave no clear call. Such entries were picked first, then a sample of the others. The call rests on the fitted dose curve; in most records, active means well fitted inhibition curve with a large enough effect; inconclusive means small, poorly fitted or top-dose-only effect; inactive means flat fitted curve, though single readings scatter. No potency is given beside an inconclusive call; the fits are too rough.
# Target: Beta-lactamase (Escherichia coli (strain K12)) (UniProt P00811)
# Assay: qHTS Inhibitors of AmpC Beta-Lactamase (assay with detergent); further: nearly all actives have a fitted effect of over 25% in size;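 on activity change, negative = inhibition: 0% = no-compound wells and -100% = no-enzyme wells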
# Details: AmpC hydrolysis of nitrocefin, absorbance 480 nm, 0.01% Triton; activity change, negative = inhibition: at 114 µM (top of the series)
# How it was run: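 20 mM phosphate pH 7.0 + 0.01% (detergent screen) or 0.0001% Triton X-100; 5.3 nM AmpC reagent; cpd preinc 15 min RT; nitrocefin (800 uM stock) to start; A480 q20 s × 4 min; Activity was normalised to no-enzyme and no-compound control wells.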
# Potency means the concentration at half of the fitted maximal effect; tags describe the fitted curve by direction and shape.
# Sequence of UniProt P00811 (P00811 whole entry, looked up): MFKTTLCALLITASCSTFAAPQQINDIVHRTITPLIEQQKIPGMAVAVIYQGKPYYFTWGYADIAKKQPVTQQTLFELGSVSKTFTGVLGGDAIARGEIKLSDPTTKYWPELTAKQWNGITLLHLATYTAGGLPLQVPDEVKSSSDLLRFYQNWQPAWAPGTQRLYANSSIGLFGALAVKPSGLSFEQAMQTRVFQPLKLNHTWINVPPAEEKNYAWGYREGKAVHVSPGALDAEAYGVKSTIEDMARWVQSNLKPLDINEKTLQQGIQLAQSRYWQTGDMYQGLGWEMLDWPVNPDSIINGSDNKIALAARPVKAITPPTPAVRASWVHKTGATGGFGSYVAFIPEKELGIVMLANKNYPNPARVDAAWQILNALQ
SMILES,Potency,"activity change, negative = inhibition"
Cc1ccc(NC(=O)C2C3C=CC4(O3)C2C(=O)N(CCCN2CCCC2)C4C(=O)NC2CCCCC2)cc1Cl (stereo not drawn),"inconclusive [inhibitor, partial curve, poor fit]",–
Cc1ccc(CC2CC(=O)N(c3cc(C)on3)C2=O)cc1 (stereo not drawn),"inconclusive [inhibitor, partial curve, poor fit]",–
CCOC(=O)N1CCN(C(=O)c2ccc3nc4ccc(Cl)cc4c(=O)n3c2)CC1,–,inactive: 2.67%
CCNc1nc(C)c(CN(C(C)=O)c2ccccc2)nc1C#N,"inconclusive [inhibitor, partial curve]",–
COC(=O)C(NC(=O)c1ccccc1C)(Nc1ncc(S(=O)(=O)c2ccc([N+](=O)[O-])cc2)s1)C(F)(F)F (stereo not drawn),"inconclusive [inhibitor, full curve]",–
O=C(Nc1ccc(NC(=O)C2CC2)nc1)c1cccnc1,"inconclusive [inhibitor, partial curve]",–
O=C1CN(C(=O)COC(=O)CNC(=O)c2ccc(Br)o2)c2ccccc2N1,"inconclusive [inhibitor, full curve, poor fit]",–
O=C(OCCN1CCOCC1)c1ccc(OCCN2CCOCC2)cc1,–,inactive: -12.9%
Cc1ccc(-n2nnc3c(=O)n(CC(=O)N4CCOCC4)cnc32)cc1,"inconclusive [inhibitor, full curve, poor fit]",–
CN1C(c2ccc(F)cc2)=CS/C1=C(\C#N)c1nnc2n1-c1ccccc1SC2,–,inactive: -17.1%
O=C(Nc1ccc(Cl)cc1)c1ccc(-n2cccn2)c([N+](=O)[O-])c1,–,inactive: -11.5%
Brc1ccc(-c2ccc(/C=N/Nc3nncc(-c4ccccc4)n3)o2)cc1,"inconclusive [inhibitor, full curve, poor fit]",–
CCOc1ccc(Nc2c(S(=O)(=O)c3ccc(C)cc3)cnc3ccc(F)cc23)cc1,"inconclusive [inhibitor, single point]",–
COc1ccc(OCC(=O)Nc2cccc(OC)c2)cc1,"inconclusive [inhibitor, full curve, poor fit]",–
CC1CCCCC1NC(=O)COC(=O)c1ccc(N(C)C)cc1 (stereo not drawn),"inconclusive [inhibitor, single point]",–
Cc1cc(NCc2ccco2)nc2cc(O)ccc12,"inconclusive [inhibitor, full curve, poor fit]",–
CC(NC(=O)c1ccc(Cl)c(Cl)c1)c1ccc(-c2ccccc2)cc1 (stereo not drawn),–,inactive: -11.2%
COc1ccc(C)c2sc(NC(=O)C3CC3)nc12,"inconclusive [inhibitor, partial curve, poor fit]",–
CN(CCOC(=O)c1ccc2c(c1)OCO2)C(C)(C)C,–,inactive: 2.65%
Cc1cc(C)c2c(c1)/C(=C/C(=O)c1ccc(Br)s1)C(=O)N2,–,inactive: -13.3%
C[N+]1(C)CCC(=C(c2ccccc2)c2ccccc2)CC1,"inconclusive [inhibitor, partial curve, poor fit]",–
O=C(Nc1ccc(Nc2ccccc2)cc1)c1ccc(Br)cc1,"inconclusive [inhibitor, full curve, poor fit]",–
CC(C)C(NC(=O)c1c(F)cccc1F)C(=O)NCc1ccncc1 (stereo not drawn),"inconclusive [inhibitor, partial curve, poor fit]",–

SMILES,Potency,"activity change, negative = inhibition"
Cc1ccc2cc(CN(Cc3ccccc3)Cc3nnnn3C3CCCC3)c(=O)[nH]c2c1,"inconclusive [inhibitor, full curve]",–
Cn1ccsc1=NC(=O)c1ccc(S(C)(=O)=O)cc1,–,inactive: 1.76%
O=C(Cn1ncc2c3ccccc3n(Cc3cccc(Cl)c3)c2c1=O)Nc1ccc(F)cc1F,–,inactive: 5.17%
O=C(Nc1ccccc1)N1CCCCC1c1cccnc1 (stereo not drawn),"inconclusive [inhibitor, full curve, poor fit]",–
Cc1nc(-c2ccc(Cl)cc2)sc1C1(C)CC(c2ccc(F)cc2)=NO1 (stereo not drawn),"inconclusive [inhibitor, partial curve, poor fit]",–
COc1ccc(Nc2nnc(-c3ccc(C)cc3)c3ccccc23)cc1C(=O)N1CCCCC1,"inconclusive [inhibitor, full curve]",–
Cc1nnc(SCC(=O)Nc2nsc(-c3ccccc3)n2)s1,–,inactive: -8.37%
O=C(Cn1ccn(-c2ccc(F)cc2)c(=O)c1=O)Nc1ccc(F)cc1,–,inactive: 15%
O=C(CSCCc1ccccn1)Nc1cccnc1,"inconclusive [inhibitor, single point]",–
O=C(NCCC1=CCCCC1)c1ccc(Cl)c(S(=O)(=O)Nc2ccccc2)c1,–,inactive: -10.4%
CCc1ccc(NC(=O)/C(C#N)=C\c2ccc(OC)c(C(=O)O)c2)cc1,"inconclusive [inhibitor, full curve, poor fit]",–
CC(C)(C)C(=O)NCC(c1ccc2c(c1)OCO2)N1CCOCC1 (stereo not drawn),–,inactive: 1.08%
CN(CC(=O)Nc1ccncc1)S(=O)(=O)c1ccc(Br)cc1,"inconclusive [inhibitor, full curve, poor fit]",–
O=C(CCSc1ccc(F)cc1)Nc1ccc(-n2cnnn2)cc1,"inconclusive [inhibitor, full curve, poor fit]",–
N#Cc1c(-c2ccccc2)nc(N2CCCCCC2)[nH]c1=O,"inconclusive [inhibitor, single point]",–
COC(=O)c1c(C)[nH]c(C(C)=O)c1C,"inconclusive [inhibitor, full curve, poor fit]",–
Cn1nnnc1SCc1ccc(CSc2nnnn2C)cc1,–,inactive: 4.05%
CCOC(=O)Cc1csc(NC(=O)CCCc2ccccc2)n1,–,inactive: 7.4%
COc1ccc(C2C(C(C)=O)=C(O)C(=O)N2CCc2c[nH]c3ccccc23)cc1OC (stereo not drawn),"inconclusive [inhibitor, single point]",–
c1ccc(-c2cc(N3CCOCC3)nc3ccccc23)cc1,–,inactive: -0.711%
CCOC(=O)N1CCC(NC(=O)Cc2ccccc2)CC1,"inconclusive [inhibitor, full curve, poor fit]",–
Cc1cc(C)c(NC(=O)CSc2nnc(-c3ccco3)n2N)c(C)c1,"inconclusive [inhibitor, full curve, poor fit]",–
Cc1c(C(=O)Nc2ccccc2)sc2nc(-c3cc4cc(Cl)ccc4oc3=O)[nH]c(=O)c12,–,inactive: 4.53%

SMILES,Potency,"activity change, negative = inhibition"
COc1ccc(C2=NN(C(=O)CCC(=O)O)C(c3ccc(OC)cc3)C2)cc1 (stereo not drawn),"inconclusive [inhibitor, full curve, poor fit]",–
Cc1cccc(-c2n[nH]c(=S)n2/N=C/c2cccs2)c1,"inconclusive [inhibitor, full curve, poor fit]",–
CCC(=O)N(Cc1cc2cc(C)c(C)cc2[nH]c1=O)C1CCCCC1,"inconclusive [inhibitor, full curve, poor fit]",–
COc1ccc(N(Cc2cccs2)C(=O)c2ccc(OC)c(Cl)c2)cc1,–,inactive: 17.5%
O=C(Cc1cccs1)N1CCN=C1SCc1ccc(Br)cc1,"inconclusive [inhibitor, partial curve]",–
COc1cccc(Nc2nnc(SCc3nc4ccccc4s3)s2)c1,"inconclusive [inhibitor, partial curve]",–
CCn1c(CNC(=O)c2ccc(OC)c(OC)c2)nnc1SCC(=O)Nc1ccccc1,"inconclusive [inhibitor, full curve, poor fit]",–
O=C(COC(=O)/C=C/c1ccc(Cl)cc1)Nc1ccccc1-c1ccccc1,"inconclusive [inhibitor, full curve, poor fit]",–
COc1ccc(N(CC(=O)NCc2ccccc2C)S(=O)(=O)c2ccccc2[N+](=O)[O-])c(OC)c1,–,inactive: 6.36%
CSc1ccccc1OCc1cc(C(=O)N(C)CC2COCCO2)no1 (stereo not drawn),–,inactive: 0.518%
COc1ccccc1CNC(=O)c1ccc(CS(=O)Cc2cccc(Cl)c2)o1 (stereo not drawn),–,inactive: 1.14%
OC[C@H]1O[C@@H](O[C@@H]2[C@@H](CO)O[C@@](O)(CO)[C@H]2O)[C@H](O)[C@@H](O)[C@H]1O,"inconclusive [inhibitor, partial curve, poor fit]",–
CC(C)C[C@@]12C(=O)N(c3cccc(F)c3)C(=O)N1[C@H](c1ccc(F)cc1)[C@@H]1C(=O)N(C3CCCCC3)C(=O)[C@@H]12,"inconclusive [inhibitor, partial curve]",–
Cc1oc(-c2ccc(Cl)cc2)nc1CS(=O)CC(=O)NCc1ccccn1 (stereo not drawn),–,inactive: 2.35%
CCOC(=O)Cc1csc(NC(=O)CCc2ccc(S(=O)(=O)N3CCOCC3)cc2)n1,"inconclusive [inhibitor, partial curve]",–
CCOC(=O)c1[nH]c(C)c(CCC(=O)NCc2ccc(CC)cc2)c1C,–,inactive: -5.58%
COCCN(Cc1ccc(F)cc1)C(=O)c1cc2ccccc2oc1=O,"inconclusive [inhibitor, partial curve, poor fit]",–
Cc1ccc(-c2ccc(=O)n(CCC(=O)NCCc3ccccc3)n2)cc1,–,inactive: 7.19%
CCOc1ccccc1NC(=O)c1ccc(S(=O)(=O)N2CCCCC2)cc1,"inconclusive [inhibitor, full curve, poor fit]",–
COc1ccc(N2CC(C(=O)NNC(=O)c3ccc(Br)cc3)CC2=O)c(OC)c1 (stereo not drawn),–,inactive: -20.6%
COc1ccc(OC)c(-n2nnnc2SCC(=O)NCc2ccc3c(c2)OCO3)c1,"inconclusive [inhibitor, partial curve, poor fit]",–
CC(C)c1ccc2nc(SCC(=O)NCC3CCCO3)c(C#N)cc2c1 (stereo not drawn),"inconclusive [inhibitor, single point]",–
